Experimental data reported in patent US20220411483A1 (Chugai, published 2022).
Where two headings read alike, the source gives them in different places. Blank lines part the entries; values can stand above or below the binder they belong to.

Experiments:
[1] = molecular target: T1, FcγRIIa H type extracellular domain, His tag (human, UniProt P12318 34-217); assay: SPR, KD ratio
T1 construct: extracellular domain; also called FcgRIIaH
T1 sequence (looked up): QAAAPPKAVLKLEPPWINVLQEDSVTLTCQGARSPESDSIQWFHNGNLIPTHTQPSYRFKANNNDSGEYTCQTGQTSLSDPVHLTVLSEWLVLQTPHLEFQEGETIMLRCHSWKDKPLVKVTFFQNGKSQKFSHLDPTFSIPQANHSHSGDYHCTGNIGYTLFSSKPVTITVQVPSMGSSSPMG

[2] = molecular target: T2, FcγRIIa R type extracellular domain, His tag (human, UniProt P12318 34-217); assay: SPR, KD ratio
T2 construct: extracellular domain; also called FcgRIIaR
T2 sequence (looked up): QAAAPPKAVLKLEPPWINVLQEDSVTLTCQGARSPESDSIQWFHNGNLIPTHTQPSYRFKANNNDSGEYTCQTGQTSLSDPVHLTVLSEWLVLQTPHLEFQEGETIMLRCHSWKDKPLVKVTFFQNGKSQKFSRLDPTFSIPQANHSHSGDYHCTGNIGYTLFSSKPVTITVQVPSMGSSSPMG

[3] = molecular target: T3, FcγRIIIa V type extracellular domain, His tag (human, UniProt P08637 partial chain); assay: SPR, KD ratio
T3 construct: extracellular domain; also called FcgRIIIaV

[4] = molecular target: T4, FcγRIa extracellular domain, His tag (human, UniProt P12314 16-292); assay: SPR, KD ratio
T4 construct: whole entry named; also called FcgRIa

[5] = molecular target: T2, FcγRIIa R type extracellular domain, …; assay: SPR, bound amount per captured antibody
[6] = molecular target: T2, FcγRIIa R type extracellular domain, …; assay: SPR kinetics, antibody captured
[7] = molecular target: T4, FcγRIa extracellular domain, His tag; assay: SPR kinetics, antibody captured
FcgRIIaR [8] = molecular target: T5, FcgRIIaR (human, UniProt P12318 34-217); assay: SPR, amount bound per captured antibody
T5 construct: extracellular domain; also called FcγRIIa R type; FcγRIIa (R type)
T5 sequence (looked up): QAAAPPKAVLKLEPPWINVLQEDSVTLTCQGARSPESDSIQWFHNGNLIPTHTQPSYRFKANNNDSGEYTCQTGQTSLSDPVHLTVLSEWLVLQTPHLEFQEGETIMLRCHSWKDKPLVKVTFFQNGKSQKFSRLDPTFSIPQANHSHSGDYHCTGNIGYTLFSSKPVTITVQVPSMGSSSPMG

FcgRIIaR [9] = molecular target: T5, FcgRIIaR; assay: SPR, amount bound per captured antibody; remark: listed apart in the source
human complement C1q = molecular target: T6, human complement C1q (human, UniProt P02745; P02746; P02747); assay: SPR, C1q bound per antibody captured on Protein L
T6 construct: Bought (PROSPEC or Calbiochem); also called human C1q
Experimental: The interaction between an antibody and human C1q was analyzed using Biacore T200 (GE Healthcare). HBS-EP+ (GE Healthcare) was used as the running buffer, and the measurement temperature was set at 25° C. Chips produced by immobilizing Protein L (ACTIGEN or BioVision) onto Series S sensor Chip CM4 (GE Healthcare) by amine coupling were used.
The antibodies of interest were captured onto these sensor chips, and allowed to interact with human complement C1q (PROSPEC or Calbiochem) diluted in the running buffer. The amount of antibody binding was determined, and comparisons were made among the antibodies. However, since the amount of C1q bound depends on the amount of captured antibodies, corrected values obtained by dividing the amount of C1q bound by the amount of each antibody captured were compared. Furthermore, by reaction with 10 mM glycine-HCl, pH 1.5, the antibodies captured onto the sensor chips were washed, and the sensor chips were recycled and reused.

FcgRIIIaV [10] = molecular target: T7, FcgRIIIaV (human, UniProt P08637 partial chain); assay: SPR (Biacore)
T7 construct: extracellular domain; also called FcγRIIIa V type

FcgRIIaR [11] = molecular target: T5, FcgRIIaR; assay: SPR (Biacore)
FcgRIa [12] = molecular target: T8, FcgRIa (human, UniProt P12314 16-292); assay: SPR (Biacore)
T8 construct: also called FcγRIa; FcγRI

FcgRIIaH [13] = molecular target: T9, FcgRIIaH (human, UniProt P12318 34-217); assay: SPR (Biacore)
T9 construct: extracellular domain; also called FcγRIIa H type
T9 sequence (looked up): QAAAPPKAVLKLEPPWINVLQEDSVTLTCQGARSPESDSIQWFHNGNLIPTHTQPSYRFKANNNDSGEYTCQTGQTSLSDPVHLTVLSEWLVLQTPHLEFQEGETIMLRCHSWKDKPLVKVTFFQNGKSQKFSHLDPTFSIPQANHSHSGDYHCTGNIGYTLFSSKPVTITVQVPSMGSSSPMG

FcgRIIIaV [14] = molecular target: T7, FcgRIIIaV; assay: SPR (Biacore); remark: listed apart in the source
FcgRIIaR [15] = molecular target: T5, FcgRIIaR; assay: SPR (Biacore); remark: listed apart in the source
FcgRIa [16] = molecular target: T8, FcgRIa; assay: SPR (Biacore); remark: listed apart in the source
FcgRIIaH [17] = molecular target: T9, FcgRIIaH; assay: SPR (Biacore); remark: listed apart in the source

T8 sequence (P12314 16-292): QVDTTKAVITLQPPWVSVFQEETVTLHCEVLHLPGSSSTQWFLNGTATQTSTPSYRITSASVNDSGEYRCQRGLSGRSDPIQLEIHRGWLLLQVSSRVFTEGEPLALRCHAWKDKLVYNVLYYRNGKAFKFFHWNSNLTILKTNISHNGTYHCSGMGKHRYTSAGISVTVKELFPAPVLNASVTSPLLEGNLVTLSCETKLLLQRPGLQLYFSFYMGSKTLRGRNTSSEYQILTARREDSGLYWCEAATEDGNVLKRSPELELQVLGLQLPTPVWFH
T7 sequence (P08637 17-208 F176V): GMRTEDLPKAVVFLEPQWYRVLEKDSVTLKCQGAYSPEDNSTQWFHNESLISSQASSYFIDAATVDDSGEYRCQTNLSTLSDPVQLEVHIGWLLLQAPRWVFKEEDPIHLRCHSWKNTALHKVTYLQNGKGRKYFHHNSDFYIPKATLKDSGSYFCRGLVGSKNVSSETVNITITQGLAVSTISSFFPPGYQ
T4 sequence (P12314 16-292): as the sequence (P12314 16-292) above
Sequence of human complement C1q (P02745 23-245 limits assumed, chain 1 of 3): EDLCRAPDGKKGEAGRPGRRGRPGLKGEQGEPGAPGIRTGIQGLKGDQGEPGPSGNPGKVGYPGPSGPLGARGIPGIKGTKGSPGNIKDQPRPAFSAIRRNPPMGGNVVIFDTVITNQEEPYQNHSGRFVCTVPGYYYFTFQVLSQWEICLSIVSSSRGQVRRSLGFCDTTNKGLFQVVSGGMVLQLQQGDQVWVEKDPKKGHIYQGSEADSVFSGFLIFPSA
Sequence of human complement C1q (P02746 28-253 limits assumed, chain 2 of 3, further chain): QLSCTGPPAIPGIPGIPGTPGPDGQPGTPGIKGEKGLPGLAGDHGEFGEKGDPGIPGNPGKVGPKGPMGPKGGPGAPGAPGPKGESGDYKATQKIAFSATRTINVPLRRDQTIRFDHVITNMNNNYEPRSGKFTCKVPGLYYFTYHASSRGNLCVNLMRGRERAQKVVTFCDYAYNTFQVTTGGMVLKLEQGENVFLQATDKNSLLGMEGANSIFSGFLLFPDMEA
Sequence of human complement C1q (P02747 29-245 limits assumed, chain 3 of 3, further chain): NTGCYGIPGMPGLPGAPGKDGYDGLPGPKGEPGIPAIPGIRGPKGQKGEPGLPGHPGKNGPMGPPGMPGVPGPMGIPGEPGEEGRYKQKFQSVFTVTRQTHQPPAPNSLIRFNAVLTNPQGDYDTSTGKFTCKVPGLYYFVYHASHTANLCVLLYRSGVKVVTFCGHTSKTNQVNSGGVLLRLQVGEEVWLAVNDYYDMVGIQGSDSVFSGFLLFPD

Relative FcgRIIaH-binding Activity [1]: 0.012 fold of IL6R-G1d/IL6R-L
Relative FcgRIIaR-binding Activity [2]: 0.065 fold of IL6R-G1d/IL6R-L
Relative FcgRIIIaV-binding Activity [3]: 0.005 fold of IL6R-G1d/IL6R-L
Relative FcgRIa-binding Activity [4]: 0.0413 fold of IL6R-G1d/IL6R-L
Relative FcgRIIaR-binding Activity [5]: 29.9 % of IL6R-G1d/IL6R-L
Kd [6]: 19 µM
Kd [7]: 0.008 µM
B1: IL6R-F648/IL6R-L (antibody, human IgG1, kappa)
heavy: QVQLQESGPGLVKPSETLSLTCAVSGHSISHDHAWSWVRQPPGEGLEWIGFISYSGITNYNPSLQGRVTISRDNSKNTLYLQMNSLRAEDTAVYYCARSLARTTAMDYWGEGTLVTVSS[human IgG1 constant region with P238D (EU numbers) not shown]
light: DIQMTQSPSSLSASVGDRVTITCRASQDISSYLNWYQQKPGKAPKLLIYYTSRLHSGVPSRFSGSGSGTDFTFTISSLQPEDIATYYCQQGNTLPYTFGQGTKVEIKRTVAAPSVFIFPPSDEQLKSGTASVVCLLNNFYPREAKVQWKVDNALQSGNSQESVTEQDSKDSTYSLSSTLTLSKADYEKHKVYACEVTHQGLSSPVTKSFNRGEC

Relative FcgRIIaR-binding Activity (FcgRIIaR [8]): 29.9 IL6R-G1d/IL6R-L=100
Relative FcgRIIaR-binding Activity (FcgRIIaR [9]): 30.7 IL6R-G1d/IL6R-L=100
Amount of C1q-binding when that for G1d is Defined as 100 (human complement C1q): 21.5 G1d=100
Relative FcgRIIIaV-binding Activity (FcgRIIIaV [10]): 0.005 KD(G1d)/KD(variant)
Kd (FcgRIIaR [11]): 19 µM
Relative FcgRIIaR-binding Activity (FcgRIIaR [11]): 0.065 KD(G1d)/KD(variant)
Kd (FcgRIa [12]): 0.008 µM
Relative FcgRIa-binding Activity (FcgRIa [12]): 0.0413 KD(G1d)/KD(variant)
Relative FcgRIIaH-binding Activity (FcgRIIaH [13]): 0.012 KD(G1d)/KD(variant)
Relative FcgRIIIaV-binding Activity (FcgRIIIaV [14]): 0.005 KD(G1d)/KD(variant)
Kd (FcgRIIaR [15]): 19 µM
Relative FcgRIIaR-binding Activity (FcgRIIaR [15]): 0.065 KD(G1d)/KD(variant)
Kd (FcgRIa [16]): 0.008 µM
Relative FcgRIa-binding Activity (FcgRIa [16]): 0.0413 KD(G1d)/KD(variant)
Relative FcgRIIaH-binding Activity (FcgRIIaH [17]): 0.012 KD(G1d)/KD(variant)
B2: IL6R-F648/IL6R-L (antibody, human IgG1, kappa)
heavy: QVQLQESGPGLVKPSETLSLTCAVSGHSISHDHAWSWVRQPPGEGLEWIGFISYSGITNYNPSLQGRVTISRDNSKNTLYLQMNSLRAEDTAVYYCARSLARTTAMDYWGEGTLVTVSS[human IgG1 constant region with P238D (EU numbers) not shown]
light: DIQMTQSPSSLSASVGDRVTITCRASQDISSYLNWYQQKPGKAPKLLIYYTSRLHSGVPSRFSGSGSGTDFTFTISSLQPEDIATYYCQQGNTLPYTFGQGTKVEIKRTVAAPSVFIFPPSDEQLKSGTASVVCLLNNFYPREAKVQWKVDNALQSGNSQESVTEQDSKDSTYSLSSTLTLSKADYEKHKVYACEVTHQGLSSPVTKSFNRGEC
